Screen size: about 350,000 compounds; about 31,000 (8.9%) were called active. Inconclusive results, whose numbers are uncertain, are shown with a selection of clear calls. Calls come from the whole dose curve; as a rule, active = well fitted inhibition curve with a large enough effect; inconclusive = small, poorly fitted or top-dose-only effect; inactive = no such curve, though single readings can be large or run the other way. Potencies beside an inconclusive call are fits to weak or partial responses and may not hold up.
What follows are molecules tested against Histone-lysine N-methyltransferase EHMT2 (Homo sapiens) (UniProt Q96KQ7) (assay: qHTS Assay for Inhibitors of Histone Lysine Methyltransferase G9a). Conditions: G9a H3K9 monomethylation, AlphaScreen, 2 h; activity, negative = inhibition: at 59 µM (top of the series) unless noted.
Outline: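 G9a (20 nM) preincubated 15 min RT with compounds, then 500 nM biotinylated H3K9 peptide and 20 uM SAM added; 2 h RT reaction. Monomethyl-H3K9 product detected by AlphaScreen with anti-H3K9me1 antibody, streptavidin donor and anti-rabbit IgG acceptor beads.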
% is set by controls: 0 for no effect and ±100 for the full control effect; potency is the fitted concentration of half-maximal effect; tags give direction and shape of the fitted curve.
Note: nearly all actives have a fitted effect of over 75% in size.

Sequence of UniProt Q96KQ7 (Q96KQ7 whole entry, looked up): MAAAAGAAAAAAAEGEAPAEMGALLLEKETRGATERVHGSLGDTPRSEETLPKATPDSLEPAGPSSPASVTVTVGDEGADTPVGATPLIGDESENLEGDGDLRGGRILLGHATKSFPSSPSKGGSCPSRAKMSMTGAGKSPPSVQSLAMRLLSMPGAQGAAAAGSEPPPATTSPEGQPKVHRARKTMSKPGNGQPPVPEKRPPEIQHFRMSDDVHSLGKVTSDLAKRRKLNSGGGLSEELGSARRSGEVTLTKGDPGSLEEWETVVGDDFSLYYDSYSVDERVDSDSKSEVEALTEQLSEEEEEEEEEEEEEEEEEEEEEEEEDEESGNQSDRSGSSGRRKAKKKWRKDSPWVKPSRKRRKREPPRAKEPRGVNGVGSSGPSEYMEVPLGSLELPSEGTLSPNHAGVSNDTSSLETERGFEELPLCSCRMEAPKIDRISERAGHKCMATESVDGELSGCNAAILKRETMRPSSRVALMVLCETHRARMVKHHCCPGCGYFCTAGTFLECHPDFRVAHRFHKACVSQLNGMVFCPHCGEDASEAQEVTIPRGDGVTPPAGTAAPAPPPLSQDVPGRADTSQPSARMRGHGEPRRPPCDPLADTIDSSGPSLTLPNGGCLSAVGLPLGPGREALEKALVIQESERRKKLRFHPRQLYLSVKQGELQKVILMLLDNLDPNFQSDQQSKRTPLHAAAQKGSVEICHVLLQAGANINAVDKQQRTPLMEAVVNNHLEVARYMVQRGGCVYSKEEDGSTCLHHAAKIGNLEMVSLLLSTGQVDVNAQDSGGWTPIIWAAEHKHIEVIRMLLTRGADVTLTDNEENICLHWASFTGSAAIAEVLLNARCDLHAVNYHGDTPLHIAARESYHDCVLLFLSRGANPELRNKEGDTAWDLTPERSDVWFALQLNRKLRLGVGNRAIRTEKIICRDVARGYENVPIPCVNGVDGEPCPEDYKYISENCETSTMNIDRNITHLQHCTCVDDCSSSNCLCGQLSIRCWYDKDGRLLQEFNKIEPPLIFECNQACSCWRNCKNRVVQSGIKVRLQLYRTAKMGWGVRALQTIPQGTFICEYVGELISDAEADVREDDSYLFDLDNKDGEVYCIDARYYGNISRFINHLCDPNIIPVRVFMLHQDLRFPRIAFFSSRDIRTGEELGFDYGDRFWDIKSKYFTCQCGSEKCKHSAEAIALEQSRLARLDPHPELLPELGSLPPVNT

Structure (SMILES)	Potency	activity, negative = inhibition
Cc1ccccc1NC1=C/C(=N\S(=O)(=O)c2cccs2)c2ccccc2C1=O	active: 3.16 µM	
O=C(O)C1CC(c2ccccc2)=NO1 (stereo not drawn)	inconclusive: 56.2 µM [inhibitor, partial curve, poor fit]	
CC(C)Cn1c(CN(Cc2ccccc2)Cc2ccccc2)nc2c1c(=O)n(C)c(=O)n2C	inconclusive: 39.8 µM [inhibitor, single point]	
O=C(NCCCN1CCN(c2cccc(Cl)c2)CC1)c1nnc(Cc2ccc(F)cc2Cl)o1	inconclusive: 17.8 µM [inhibitor, partial curve, poor fit]	
COc1ccc(C2CC(c3ccccc3)=NN2C(=S)Nc2ccccc2)cc1 (stereo not drawn)	inconclusive: 39.8 µM [inhibitor, partial curve, poor fit]	
CCn1c2ccccc2c2cc(NC(=O)CNCc3ccccc3OC)ccc21	active: 14.1 µM	
CC(=O)Nc1ccc(NC(=O)c2ccccc2N(C)S(=O)(=O)c2ccccc2)cc1		inactive: 17.3% [at 0.501 µM]
CC(/C=C1\SC(=S)N(CCCC(=O)Nc2ccc(C(=O)O)cc2)C1=O)=C\c1ccccc1	active: 12.6 µM	
Cc1cc(C)c(OCC(O)CN2CCN(c3ccccn3)CC2)c(C)c1 (stereo not drawn)		inconclusive: -62.4% [inhibitor]
O=C(NC(Cc1ccccc1)C(=O)O)/C(=C\c1ccc(Cl)cc1)NC(=O)c1ccco1 (stereo not drawn)	active: 79.4 µM	
O=C(O)Cn1nc(N2CCN(c3ccccc3)CC2)ccc1=O	inactive	
CC(=O)Nc1cccc(-c2csc(Nc3ccc(C)cn3)n2)c1	inconclusive: 25.1 µM [inhibitor, single point]	
O=C(c1cccc(-c2ccco2)c1)N1CCCC(N2CCN(c3ccc(F)cc3)CC2)C1 (stereo not drawn)	inconclusive: 44.7 µM [inhibitor, partial curve, poor fit]	
c1ccc(-c2nc(NCc3ccco3)c3oc4ccccc4c3n2)cc1	inconclusive: 89.1 µM [inhibitor, single point]	
COc1ccc(CNC(=O)c2c([S-])n(-c3ccc(C)cc3)c3cccc[n+]23)cc1	active: 3.98 µM	
COc1ccccc1NC(=O)c1ccc(NC(=O)c2ccco2)cc1	inconclusive: 0.631 µM [inhibitor, partial curve, poor fit]	
CCS(=O)(=O)c1ccc(N=Nc2ccc(O)c3ncccc23)c(OC)c1	active: 7.08 µM	
Fc1ccc(Cn2nnnc2C(c2ccc(Cl)cc2)N2CCSCC2)cc1 (stereo not drawn)	active: 50.1 µM	
CC1=NN(c2nc(-c3ccc(C)cc3)cs2)C(=O)C1N=Nc1cccc(C)c1 (stereo not drawn)	inconclusive: 2.82 µM [inhibitor, full curve, poor fit]	
CCN(CC)c1ccc(C2C3CCCCC3(O)CCN2CC(=O)Nc2ccccc2)cc1 (stereo not drawn)	inconclusive: 1.12 µM [inhibitor, partial curve, poor fit]	
COc1ccc(N2CCN(C(=O)COC(=O)c3cc(S(=O)(=O)N(C)C)ccc3N3CCCC3)CC2)cc1	inconclusive: 2.82 µM [inhibitor, partial curve, poor fit]	
O=C(O)C1=CC(c2ccc(Br)cc2)n2ncnc2N1 (stereo not drawn)	inconclusive: 39.8 µM [inhibitor, partial curve, poor fit]	
COC(=O)C(O)(CC(=O)Nc1cc(Cl)ccc1Cl)C(F)(F)F (stereo not drawn)	inconclusive: 25.1 µM [inhibitor, single point]	

Structure (SMILES)	Potency	activity, negative = inhibition
O=C(Nc1ccc2nc(-c3ccco3)c(-c3ccco3)nc2c1)NC1CC1	inconclusive: 1.78 µM [inhibitor, full curve, poor fit]	
C=CCN(C(=O)c1csnn1)C(C(=O)NC1CCCC1)c1ccccc1F (stereo not drawn)	inactive	
CCOC(=O)c1sc(NC(=O)CCN2CC(C)OC(C)C2)c(C(=O)OCC)c1C (stereo not drawn)	active: 44.7 µM	
COc1ccc(NC(=O)c2nc(S(=O)(=O)Cc3ccc(C)cc3)ncc2Cl)cc1	inconclusive: 22.4 µM [inhibitor, single point]	
C[C@]12CCC(=O)C=C1[C@H](O)C[C@@H]1[C@@H]2[C@@H](O)C[C@@]2(C)[C@H]1CC[C@]2(O)C(=O)CO	inconclusive: 3.16 µM [inhibitor, partial curve, poor fit]	
COc1ccccc1-c1nc(C#N)c(N2CCc3ccccc3C2)o1	inconclusive: 0.562 µM [inhibitor, partial curve, poor fit]	
N#C/C(=N\Nc1cccc(Cl)c1)C(=O)c1ccccc1	active: 25.1 µM	
COc1ccc(C(=O)NC2(C(F)(F)F)NC(=O)N(CCCc3ccccc3)C2=O)cc1OC (stereo not drawn)	inactive	
CCCSc1nnc(NC(=O)CSc2nc3[nH]c(=O)cc(O)c3s2)s1	inconclusive: 3.16 µM [inhibitor, partial curve, poor fit]	
Cc1cccc(C)c1NC(=O)CN(C)CC(=O)Nc1sc2c(c1C(N)=O)CCC2	inconclusive: 79.4 µM [inhibitor, partial curve, poor fit]	
CCN(CC)S(=O)(=O)c1ccc(C(=O)N2CCN(c3ncccn3)CC2)cc1	inconclusive: 2.82 µM [inhibitor, full curve]	
COc1cc2c(cc1OC)C(COc1ccc(C(C)C)cc1)N(C(=O)COc1ccccc1)CC2 (stereo not drawn)	inactive	
COc1cc(O)c(C(CC(=O)N2CCCC(C)C2)c2ccc(N(C)C)cc2)c(OC)c1 (stereo not drawn)	inconclusive: 3.16 µM [inhibitor, single point]	
CCN(CC)C(=O)C1CCCc2c1[nH]c1ccc(Cl)cc21 (stereo not drawn)	inconclusive: 39.8 µM [inhibitor, single point]	
CCOC(=O)c1[nH]cnc1C(=O)Nc1ccccc1OC	inconclusive: 56.2 µM [inhibitor, partial curve]	
Cc1ccc(Cl)c(OCCCN(C)Cc2ccccc2)c1	active: 1.78 µM	
COc1ccc(NC(=O)CC2C(=O)N(c3ccc(C)cc3)C(=O)N2C2CCCC2)cc1 (stereo not drawn)	inactive	
Cc1ccc(-n2c3c(c(O)c(-c4ccccc4)c2=O)C(=O)CC(C)(C)C3)cc1	inconclusive: 89.1 µM [inhibitor, single point]	
Nc1nnc(-c2ccncc2)s1		inconclusive: -55.5% [inhibitor]
CCSc1nnc(N2C(=O)CC(c3ccsc3)C3=C2CC(C)(C)CC3=O)s1 (stereo not drawn)	inconclusive: 35.5 µM [inhibitor, partial curve, poor fit]	
Cn1c(=O)c2ccccc2n2c(=S)[nH]nc12	active: 6.31 µM	
COc1ccccc1C1C(C#N)=C(N)Oc2c1c(-c1ccccc1)nn2-c1ccccc1 (stereo not drawn)	inconclusive: 35.5 µM [inhibitor, single point]	
CN1CCN(c2nnc(-c3cccs3)c3ccccc23)CC1	inconclusive: 89.1 µM [inhibitor, single point]	

Structure (SMILES)	Potency	activity, negative = inhibition
Cc1ccc(OCCC(=O)Nc2ccc3c(c2)OCCCO3)cc1	inconclusive: 8.91 µM [inhibitor, single point]	
CCc1ccc(N2C(=O)C3ON(c4ccccc4)C(c4ccco4)C3C2=O)cc1 (stereo not drawn)	active: 50.1 µM	
O=C(Nc1ccc(F)cc1Cl)c1ccc2c(=O)n3c(nc2c1)CCC3	inconclusive: 79.4 µM [inhibitor, partial curve, poor fit]	
COc1cccc(CNC(=O)c2cc3ccccn3n2)c1	inactive	
Cc1cc(C)c2oc(=O)cc(CN3CCOCC3)c2c1	inconclusive: 39.8 µM [inhibitor, single point]	
Cc1ccc(CN2CC(C(=O)Nc3ccccc3N3CCCC3)CC2=O)cc1 (stereo not drawn)	inconclusive: 56.2 µM [inhibitor, partial curve, poor fit]	
COc1cccc(NC(=O)c2oc3ccccc3c2NC(=O)Cc2cccc(C)c2)c1	inactive	
COC(=O)c1ccc(Cl)cc1NC(=O)N1CCC(CN2CCC(C)CC2)CC1	inactive	
Cc1ccc(C)c(CN2C(=O)C(O)(c3c[nH]c4ccccc34)c3ccccc32)c1 (stereo not drawn)	inconclusive: 44.7 µM [inhibitor, partial curve, poor fit]	
CN(Cc1ccccc1)C1=CC(=[N+]2CCCC2)CC(C)(C)C1	inconclusive: 0.398 µM [inhibitor, partial curve, poor fit]	
Cc1nc2ccccc2c2c1CC(C(C)(Cl)Br)O2 (stereo not drawn)	inconclusive: 35.5 µM [inhibitor, single point]	
Cc1ccc(S(=O)(=O)N(C)C)cc1NC(=O)COC(=O)/C=C/c1ccc(F)cc1	inactive	
Cc1cccc(CCNCc2c(C(=O)O)c(C)n(-c3ccccc3)c2C)c1	inconclusive: 79.4 µM [inhibitor, single point]	
O=Cc1cc(N=Nc2ccccc2Cl)ccc1O	active: 10 µM	
CCOC(=O)N1CCC(NCCNC(=O)c2cccc(F)c2)CC1		inactive: -17.5% [at 2.33 µM]
CCCCN=C1NN=C(c2cc3ccccc3o2)CS1	inconclusive: 28.2 µM [inhibitor, partial curve, poor fit]	
CCOC(=O)c1ccccc1NC(=O)c1nn(-c2ccc(C)cc2)c(=O)n(C)c1=O	inactive	
Cc1ccc(C(=O)NNC(=O)CSc2nnc(C(C)C)n2C)cc1	inactive	
COC(=O)/C=c1/s/c(=C(\C#N)C(=O)NCc2ccco2)n(-c2ccccc2)c1=O	active: 44.7 µM	
CCOC(=O)CC(C)(C)/C(C)=N/Nc1ccc([N+](=O)[O-])cc1[N+](=O)[O-]	active: 8.91 µM	
Cc1cccc(NC(=O)c2oc3ccc(S(=O)(=O)N(C)C4CCCCC4)cc3c2C)c1C	inactive	
NS(=O)(=O)c1ccc(CCNc2nc3c(-c4cccc(F)c4)nnn3c3ccccc23)cc1	inconclusive: 1.12 µM [inhibitor, full curve]	
